Results: PubChem BioAssay AID485294 (National Center for Advancing Translational Sciences (NCATS), 2010)
The campaign covered roughly 370,000 compounds. About 150 (0.041%) were called active. The shares of active, inactive and inconclusive entries below differ from those in the screen. The call rests on the fitted dose curve; in most records, active means well fitted inhibition curve with a large enough effect; inconclusive means small, poorly fitted or top-dose-only effect; inactive means flat fitted curve, though single readings scatter. No potency is given beside an inconclusive call; the fits are too rough.
Further: nearly all actives have a fitted effect of over 25% in size.
Potency means the concentration at half of the fitted maximal effect; tags describe the fitted curve by direction and shape.

Each molecule was assayed against Beta-lactamase (Escherichia coli (strain K12)) (UniProt P00811) (assay: qHTS Inhibitors of AmpC Beta-Lactamase (assay with detergent)). Conditions: AmpC hydrolysis of nitrocefin, absorbance 480 nm, 0.01% Triton; series mostly up to 114 µM.
Chain of UniProt P00811 (P00811 whole entry, looked up): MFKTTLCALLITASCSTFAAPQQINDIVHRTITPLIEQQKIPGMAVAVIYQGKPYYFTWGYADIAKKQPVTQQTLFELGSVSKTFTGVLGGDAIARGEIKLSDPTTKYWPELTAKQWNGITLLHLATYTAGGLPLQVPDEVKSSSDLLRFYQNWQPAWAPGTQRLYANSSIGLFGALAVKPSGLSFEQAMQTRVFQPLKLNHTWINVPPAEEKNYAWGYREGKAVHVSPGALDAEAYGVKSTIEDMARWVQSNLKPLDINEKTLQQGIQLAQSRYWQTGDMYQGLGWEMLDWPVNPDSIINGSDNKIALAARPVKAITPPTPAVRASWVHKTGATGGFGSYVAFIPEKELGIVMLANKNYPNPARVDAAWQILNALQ
How it was run: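 AmpC (5.3 nM in the dispensed reagent) in 20 mM phosphate pH 7.0 with 0.01% (detergent screen) or 0.0001% Triton X-100 was preincubated with compounds for 15 min at room temperature. Nitrocefin was then added from an 800 uM solution, and hydrolysis was followed at 480 nm.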
`COc1ccccc1N(Cc1ccccc1)S(=O)(=O)c1cccc(C(=O)Nc2cccc(C)n2)c1` was tested, and the Potency was inconclusive [inhibitor, single point].
In the case of `O=c1nc(-c2ccccc2)c2cc(SC(F)F)ccc2[nH]1`, the Potency is reported as “inactive”.
For `C#CCOC(=O)CCC(=O)NCCc1ccccc1`, the Potency was inconclusive [inhibitor, full curve, poor fit].
For `COc1cccc(CN2CCN(Cc3cccc4c3OCO4)CC2CCO)c1` (stereo not given), the Potency was “inactive”.
For `CCN(Cc1ccccc1)C(=O)c1sc2nc3n(c(=O)c2c1C)CCCC3`, the Potency was “inactive”.
In the case of `CCN(CC)CCCNC(=O)c1nn(-c2ccc(C)cc2)c(=O)c2c1c1ccccc1n2C`, the Potency is reported as “inactive”.
In the case of `COC(=O)/C(=C\Nc1ccc(Cl)cc1Cl)NC(=O)c1ccc(Cl)cc1Cl`, the Potency is reported as “inactive”.
In the case of `O=C(CN1CCN(c2ccccc2O)CC1)Nc1ccc2c(c1)CCC2`, the Potency is reported as “inactive”.
With `Cc1ccccc1NNC(N)=S` the Potency was inconclusive [inhibitor, full curve].
`Cc1ccc(C2CCN(C(=O)Nc3ccc(F)cc3)C2)cc1` (stereo not given) was tested, and the Potency was inconclusive [inhibitor, full curve, poor fit].
For `O=C(CSc1nccc(-c2ccc(Br)cc2)n1)NCCc1ccccc1`, the Potency was inconclusive [inhibitor, full curve, poor fit].
In the case of `COc1ccc(N2C(=O)CCC(C(=O)N3CCN(c4ccccn4)CC3)C2c2ccc(F)cc2)cc1` (stereo not given), the Potency is reported as inconclusive [inhibitor, single point].
`CC(=O)NC(CCS(C)(=O)=O)C(=O)Nc1c(C)cccc1C` (stereo not given) was tested, and the Potency was inconclusive [inhibitor, partial curve].
`CC(C)CCNC(=O)C(C)N(Cc1ccc(F)cc1)C(=O)c1ccc(CN2CCCCC2)o1` (stereo not given) was tested, and the Potency was inconclusive [inhibitor, full curve].
In the case of `Cc1cc(NC(=O)CCC(=O)N(c2ccc(F)cc2)C(C(=O)NC2CCCC2)c2ccncc2)no1` (stereo not given), the Potency is reported as “inactive”.
`O=S(=O)(CCn1cccc1)CCn1cccc1` was tested, and the Potency was inconclusive [inhibitor, single point].
In the case of `O=C1CCCN1CCCn1cnc2c([nH]c3ccc(F)cc32)c1=O`, the Potency is reported as inconclusive [inhibitor, single point].
With `Cc1cc(C)cc(N2CC(c3nc4ccccc4n3C)CC2=O)c1` (stereo not given) the Potency was inconclusive [inhibitor, full curve].
For `CC1(NC(=O)NCc2ccco2)CCS(=O)(=O)C1` (stereo not given), the Potency was inconclusive [inhibitor, single point].
With `COc1ccc(NC(=S)Nc2nc(CC(=O)Nc3ccccc3OC)cs2)cc1` the Potency was inconclusive [inhibitor, single point].
